# Laboratory results published in publication PMC4336329 (PLoS ONE, 2015).
# Screen size: about 310,000 compounds; about 14,000 (4.5%) showed an effect of 50% or more. The effect is printed as a negative number. The list shows a part of the results.
# Target: human ether-à-go-go-related gene (hERG) potassium channel (human, UniProt Q12809)
# Assay: primary screen, population patch clamp on CHO cells stably expressing hERG
# 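Note: peak tail current of the secondary pulse compared with the same well before compound.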
# Chain of human ether-à-go-go-related gene (hERG) potassium channel (Q12809 whole entry, looked up): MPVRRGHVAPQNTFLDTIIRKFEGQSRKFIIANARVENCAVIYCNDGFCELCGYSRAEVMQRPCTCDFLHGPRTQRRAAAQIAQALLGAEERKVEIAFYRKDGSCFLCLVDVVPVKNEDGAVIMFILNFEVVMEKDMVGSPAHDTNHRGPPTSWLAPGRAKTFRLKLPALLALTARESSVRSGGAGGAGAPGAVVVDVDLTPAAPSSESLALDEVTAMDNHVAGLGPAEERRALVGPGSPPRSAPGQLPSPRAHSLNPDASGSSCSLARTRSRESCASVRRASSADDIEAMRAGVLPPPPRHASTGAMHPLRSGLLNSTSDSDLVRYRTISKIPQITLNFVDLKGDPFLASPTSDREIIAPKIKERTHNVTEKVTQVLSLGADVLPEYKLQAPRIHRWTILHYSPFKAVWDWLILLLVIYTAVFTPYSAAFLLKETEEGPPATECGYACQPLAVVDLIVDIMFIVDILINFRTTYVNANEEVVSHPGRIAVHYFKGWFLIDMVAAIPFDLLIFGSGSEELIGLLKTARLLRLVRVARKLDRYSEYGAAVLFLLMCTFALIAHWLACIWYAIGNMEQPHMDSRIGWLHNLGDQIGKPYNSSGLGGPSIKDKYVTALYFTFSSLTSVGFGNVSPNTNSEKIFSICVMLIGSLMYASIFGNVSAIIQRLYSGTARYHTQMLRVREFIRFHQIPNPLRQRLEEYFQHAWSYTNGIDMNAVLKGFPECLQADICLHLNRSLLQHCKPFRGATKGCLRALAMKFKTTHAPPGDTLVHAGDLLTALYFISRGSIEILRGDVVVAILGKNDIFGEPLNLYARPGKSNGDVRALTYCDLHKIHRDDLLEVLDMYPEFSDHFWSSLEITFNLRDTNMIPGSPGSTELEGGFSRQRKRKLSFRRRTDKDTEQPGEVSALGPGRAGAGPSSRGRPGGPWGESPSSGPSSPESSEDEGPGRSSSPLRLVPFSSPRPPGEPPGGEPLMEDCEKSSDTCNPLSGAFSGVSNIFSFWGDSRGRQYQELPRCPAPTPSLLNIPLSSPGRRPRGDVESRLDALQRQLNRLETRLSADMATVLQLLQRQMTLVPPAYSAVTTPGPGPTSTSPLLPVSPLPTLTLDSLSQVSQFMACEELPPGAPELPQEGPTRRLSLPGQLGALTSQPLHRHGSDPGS
row,Structure (SMILES),"hERG current change (%, negative = inhibition) at 10uM [%]"
1,CCOC(=O)N1CCN(C(=O)c2ccc(NS(C)(=O)=O)cc2)CC1,-5.65
2,CCOC(=O)N1CCN(S(=O)(=O)c2ccc(C(=O)Nc3sc4c(c3C(N)=O)CC(C)(C)NC4(C)C)cc2)CC1,20.3
3,O=C1CCC(C(=O)N2CCN(c3cnccn3)CC2)CN1CCc1cccc(F)c1 (stereo not shown),-25.7
4,Nc1nc2ncc(-c3ccsc3)c(N)n2n1,-31.3
5,CC(C)CCC1(CCNC(C)c2cccs2)CCOC(C)(C)C1 (stereo not shown),-7.73
6,CCN1CCCC1CN(Cc1cc2ccc(C)cc2[nH]c1=O)C(=S)Nc1ccc(OC)cc1 (stereo not shown),25.3
7,CCN(CC)S(=O)(=O)c1ccc(NC2c3ccccc3C(=O)N2Cc2ccc3c(c2)OCO3)cc1 (stereo not shown),-0.55
8,NNC(=O)CN1C(=O)CN=C(c2ccccc2)c2cc(Br)ccc21,-5.51
9,N/C(=N\OC(=O)c1csnn1)c1ccc(C(F)(F)F)cc1,4.62
10,CC(C)(C)NC(=O)CN(C(=O)c1snc(C(=O)NC2CCCCC2)c1N)c1ccc(F)cc1,-8.06
11,Fc1ccc(Nc2nnc(C(F)(F)F)s2)cc1Cl,10.2
12,Cc1ccc(N2C(=O)C3CC(c4ccccc4)=C4C5C=CC(C6C(=O)N(c7ccc(C)cc7C)C(=O)C56)C4C3C2=O)c(C)c1 (stereo not shown),7.82
13,Cc1nc(OCC(=O)c2ccc(Cl)cc2)c(C#N)c2c1COC(C)(C)C2,5.74
14,COc1ccc(-c2noc(CCCC(=O)NC3CCCC3)n2)cc1,2.23
15,C#CCSc1nnc(-c2ccc(C)cc2)o1,-11.9
16,CCOC(=O)c1cc(-c2csc(COc3ccccc3Cl)n2)on1,-21.1
17,O=C(CS(=O)(=O)c1ccccc1)NCc1ccccc1,-19.5
18,O=C(C1CCN(Cc2cc(Cl)ccc2O)CC1)N1CCN(Cc2ccccc2)CC1.O=C(O)C(=O)O,-45
19,COc1cc(SC)ccc1C(=O)NCCOc1c(C)cc(C)cc1C,-6.52
20,COCCNc1nc2nonc2nc1N1C[C@H]2CC[C@H]1C2,0.934
21,CCOC(=O)c1cccc(NC(=O)CCNS(=O)(=O)c2cc(Br)cnc2N)c1,18.2
22,O=C(O)C1C2CCC(O2)C1C(=O)NCCC1=CCCCC1 (stereo not shown),3.45

row,Structure (SMILES),"hERG current change (%, negative = inhibition) at 10uM [%]"
1,Cc1ccc(NS(=O)(=O)c2ccc3c(c2)NC(=O)CC(=O)N3)cc1C,23.4
2,CN(C(=O)c1ccc(S(=O)(=O)c2cccc(Cl)c2)c([N+](=O)[O-])c1)C1CCCCC1,-20.8
3,CC(C)(C)C(=O)NC(=S)N1CCc2ccccc21,-2.06
4,CCOc1ccc(OCCSc2nnnn2C2CCCCC2)cc1,-9.13
5,O=C(NC1CCCCC1)C(c1ccc(F)cc1)N(Cc1ccco1)C(=O)c1ccccn1 (stereo not shown),6.46
6,CCOc1cc(CNC(C)(C)CO)cc(Br)c1OCc1ccc(Cl)cc1Cl,-12.1
7,C=C(C)Cn1c(NCCOC)nc2c1c(=O)[nH]c(=O)n2C,9.81
8,COc1ccc(CCC(=O)Nc2cc(S(=O)(=O)N3CCCCC3)ccc2N(C)C)cc1,-27.8
9,Cc1ccc(Nc2nc(-c3cccnc3)cs2)cc1C,24.1
10,CCOC(=O)/C=C/S(=O)(=O)c1ccc(NC(C)=O)cc1,0.279
11,CC1(C)NC(=O)N(CC(O)CNC23CC4CC(CC(C4)C2)C3)C1=O (stereo not shown),8.37
12,CCOC(=O)NC(=O)COC(=O)CNC(=O)c1ccc(OCC)c(OCC)c1,8.47
13,Cc1[nH]c2ccccc2c1C(=O)C(=O)N1CCN(c2ccccc2F)CC1,-18.3
14,COc1cc2nc(C3CCC3)n(NC(=O)C3CCC3)c(=O)c2cc1OC,13.2
15,CC(C)NS(=O)(=O)c1ccc(OCC(=O)N2CCc3ccccc3C2)cc1,9.49
16,O=C(CN1C(=O)C2C3CCC(C3)C2C1=O)OCC(=O)c1ccc(Br)cc1 (stereo not shown),-16.5
17,CCCNC(=O)CSc1nccn1Cc1ccco1,0.203
18,Cc1ccc(C(=O)NC(C)c2ccc(-n3ccnc3)cc2)cc1 (stereo not shown),-54
19,COc1cc(-c2nnc(NC(=O)CS(=O)(=O)c3ccc(C)cc3)o2)cc(OC)c1OC,22.2
20,CCOC(=O)Cn1cnc2c(nnn2-c2cccc(Cl)c2)c1=O,-15.2
21,Cc1ccc(-c2nnn(CC(=O)N3CCCc4ccccc43)n2)cc1,-16.7
22,CN(C)NC1CCS(=O)(=O)C1.Cl (stereo not shown),18.7

row,Structure (SMILES),"hERG current change (%, negative = inhibition) at 10uM [%]"
1,COc1ccc(S(=O)(=O)N(C)CC(=O)Nc2ccc3c(c2)OCCO3)cc1,3.73
2,Cc1nnc(SCC(=O)N2CCC(C(N)=O)CC2)s1,13.5
3,CCOc1ccc(N2CC(C(=O)Nc3cc(C)on3)CC2=O)cc1 (stereo not shown),-28.5
4,Clc1ccc(-c2csc(-c3ccncc3)n2)cc1,13.6
5,O=C(C1CCN(S(=O)(=O)c2cccnc2)CC1)N1CCN(c2cccc(Cl)c2)CC1,-31.5
6,O=C(CN1C(=O)c2ccccc2S1(=O)=O)N1CCc2ccccc2C1,-17.6
7,O=C1CC(c2ccccc2Cl)Cc2c1cnn2-c1nc2ccccc2s1 (stereo not shown),19.7
8,O=C(CCNc1ccc(Cc2ccncc2)cc1)c1cccc([N+](=O)[O-])c1,11
9,COc1ccc(-n2c(C)cc(C(=O)CN3C(=O)NC4(CCCc5sccc54)C3=O)c2C)cc1 (stereo not shown),1.95
10,O=S(=O)(/N=C(/Nc1ccc(F)cc1F)c1ccc(Cl)cc1)c1ccccc1,-1.17
11,O=C1CN(c2nc(-c3ccccc3)c3cc(Br)ccc3n2)c2ccccc2N1,18.9
12,Cc1cccc(C2CC(c3ccc(Cl)cc3)Nc3nc(N)nn32)c1 (stereo not shown),-18.5
13,O=C1c2cccc3cccc(c23)N1Cc1cccc(F)c1,17.1
14,COc1ccccc1CNC(=O)C1CCC(=O)N(CCCN2CCCC2=O)C1 (stereo not shown),5.39
15,O=C(N=Nc1c(O)[nH]c2ccc([N+](=O)[O-])cc12)c1cc(-c2ccccc2Cl)nc2ccccc12,7.09
16,CC1=NOC(=O)/C1=C/c1ccc(O)cc1,41.4
17,CN(C)CCSc1nc(N)c2c3c(sc2n1)CN(C)CC3,9.66
18,COCCN(C(=O)COC(=O)/C=C/c1ccc2c(c1)OCO2)c1c(N)n(Cc2ccccc2)c(=O)[nH]c1=O,9.63
19,O=C(O)C(CCCCNS(=O)(=O)c1ccc(F)cc1)NS(=O)(=O)c1ccc(F)cc1 (stereo not shown),8.92
20,CCCC(=O)Nc1c(-c2cccs2)c(=O)c2ccccc2n1CC,-5.6
21,Cc1cccc(C)c1NC(=S)NC(C)(C)CO,12.9
22,CCOc1ncccc1C(=O)OCc1ccc(C(=O)OC)cc1,6.63

row,Structure (SMILES),"hERG current change (%, negative = inhibition) at 10uM [%]"
1,Cc1cc(C)n(C)c(=O)c1C#N,12.7
2,Cc1noc(C)c1-c1ccc2ncnc(NCC3CCCCN3C)c2c1 (stereo not shown),12.1
3,CCCN1C(=O)CC(c2ccco2)Sc2ccccc21 (stereo not shown),-19.4
4,Cn1ncc(C(=O)Nc2ccc(OC(F)(F)F)cc2)c1-n1cccc1,-81.3
5,CCC(=O)c1ccc(OCC(=O)OCC(=O)NCCCc2ccccc2)cc1,6.36
6,Cc1ccnc(NC(=O)c2oc3ccccc3c2C)c1,24.7
7,CCOc1ccc(NC(=S)Nc2ccc(F)cc2)cc1,-21.6
8,CC1CCc2[nH]nc(C(=O)O)c2C1 (stereo not shown),-0.665
9,CC(=O)C1=C(O)C(=O)N(C2CCCCC2)C1c1ccccc1 (stereo not shown),0.00058
10,COc1ccc(CCNC(=O)CSc2nnc(-c3ccc(F)cc3)c3ccccc23)cc1OC,-23.9
11,Cc1cccc(NC(=O)CCN2CCN(C/C=C/c3ccccc3)CC2)c1.Cl,-74
12,Cc1ccc([N+](=O)[O-])cc1NC(=O)Nc1onc(C)c1C,17.1
13,O=C(NCCc1ccc(Cl)cc1)C1CCN(S(=O)(=O)N2CCCCC2)CC1,-5.98
14,Cl.NC(CO)c1cn([C@@H](CCC(=O)O)C(=O)N2CCNCC2)nn1 (stereo partly shown),18.3
15,Cc1ccc(NC(=O)Cc2nc(CCl)cs2)cc1.Cl,-3.78
16,Oc1ccccc1-c1nc(/C=C/c2ccccc2)nn1-c1ccccc1,10.2
17,COc1ccc(NC(=O)CN(C)C(=O)c2cccc(S(=O)(=O)Nc3ccccc3Cl)c2)cc1,2.72
18,CCCN=C(C)C1=C(O)c2ccccc2C1=O,11.3
19,CC1(C)C2CC[C@]1(C)C(=O)N(CCCCN1CCN(c3ccccn3)CC1)C2=O.Cl,-44
20,CN1C(=O)/C(=C\c2ccccc2OCc2ccccc2)SC1=S,14.8
21,N#CC1=C(N)NC(=S)C(C(N)=O)C1c1ccc([N+](=O)[O-])cc1 (stereo not shown),13.4
22,Cc1ccccc1CSCc1nc(N)nc(Nc2ccccc2C)n1,20.2
